Results from the supplement of paper PMC3334620.
In all, about 33,000 sequences were measured (“E-score (-0.5 to 0.5)”: median about -0.021, highest 2% from about 0.32 on). The list shows a part of the results.

These sequences were tested against T1, Zap1 (UniProt P47043) (assay: PBM E-score (8-mer binding enrichment) (E-score (-0.5 to 0.5)); higher = stronger / more preferred TF binding; most listed sequences are background and not binding sites). Conditions: protein concentration: 200 nM; construct: GST-full length.
T1 sequence: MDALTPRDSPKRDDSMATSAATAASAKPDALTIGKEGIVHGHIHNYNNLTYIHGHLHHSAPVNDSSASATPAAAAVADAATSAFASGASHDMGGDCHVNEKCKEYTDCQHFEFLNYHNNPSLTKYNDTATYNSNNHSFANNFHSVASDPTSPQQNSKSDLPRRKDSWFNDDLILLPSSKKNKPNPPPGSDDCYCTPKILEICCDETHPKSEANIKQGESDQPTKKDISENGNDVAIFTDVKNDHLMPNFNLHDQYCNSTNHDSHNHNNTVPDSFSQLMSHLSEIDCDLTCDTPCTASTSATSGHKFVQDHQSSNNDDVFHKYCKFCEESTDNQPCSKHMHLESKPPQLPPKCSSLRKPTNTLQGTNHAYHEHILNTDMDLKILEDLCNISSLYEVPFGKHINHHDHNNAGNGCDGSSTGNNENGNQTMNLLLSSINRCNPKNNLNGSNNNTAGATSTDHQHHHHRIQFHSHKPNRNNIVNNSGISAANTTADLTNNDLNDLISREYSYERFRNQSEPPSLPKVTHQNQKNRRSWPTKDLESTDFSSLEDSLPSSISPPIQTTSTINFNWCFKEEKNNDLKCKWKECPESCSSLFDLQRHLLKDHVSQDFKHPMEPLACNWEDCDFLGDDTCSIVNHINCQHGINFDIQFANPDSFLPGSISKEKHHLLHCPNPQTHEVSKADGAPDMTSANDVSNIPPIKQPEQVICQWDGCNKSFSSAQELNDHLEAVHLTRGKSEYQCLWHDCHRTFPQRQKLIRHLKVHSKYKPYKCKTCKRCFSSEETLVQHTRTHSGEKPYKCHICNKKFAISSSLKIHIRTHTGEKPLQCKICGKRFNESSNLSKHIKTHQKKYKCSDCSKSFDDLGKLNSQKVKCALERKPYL
Outline: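 For each ungapped eight-base word taken together with its reverse complement, the Universal PBM Analysis Suite assigned an E-score. Binding data came from GST-tagged yeast transcription factors, applied at about 100-200 nM, on universal all-10-mer Agilent arrays made double-stranded by primer extension. Fluorescent anti-GST marked bound protein, and scans were normalised with masliner.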

Sequence	PBM E-score
ATCTGCGA	-0.114
CCCGATCG	0.0686
GATCCGCC	-0.0696
ACTGTGGA	-0.0912
AGGGAGGA	-0.225
ATTCCCTG	0.0268
GTCGAGCA	-0.236
CGCCTGAC	-0.0944
AATGGTCC	0.119
CCGCCTAG	-0.134
AGCAGTAG	-0.287
GTAGCTAC	0.0187
AAGCGCAA	-0.0758
AGACCAGA	-0.047
ATTGCTAA	0.153
CACATTAG	-0.103
CGGAACTA	0.141
AGACGACT	-0.212
GGATATCC	0.0655
GAATATCC	-0.129
CGATACCA	0.101
CCAATAGA	-0.224
ACATTCTA	-0.0304
AACCGTGC	0.244
CGGTAGCC	0.186

Sequence	PBM E-score
CTGACTAA	-0.0753
GGGTATAA	0.293
CTGTATCA	-0.181
GAAGAATC	-0.133
CAGTTCGA	0.0226
CACTCTGA	-0.21
AGTGGGAA	0.022
ATTGTTGG	0.169
CCGGGTAA	0.246
GACTACCA	0.00811
CGAGCCCC	-0.18
GAGGCTGC	-0.0982
AGCACTAG	-0.136
GTTCATCA	0.00086
CTGATATA	-0.111
GCAGATAC	0.0429
CTGCGAAA	-0.0193
CGATCACC	0.226
ACGACTCT	-0.163
CTGTAGTA	0.23
AGCTGACT	-0.0774
CATCTGGA	0.0797
GATTTTTA	-0.0197
CCTTCGAG	0.0427
CCGGCGTA	-0.224

Sequence	PBM E-score
AACGTGCA	-0.0584
GATAGCCC	-0.125
AACGTGGG	-0.317
CCTCTCGA	0.0879
ATGCTCTG	-0.275
AGCATCCG	-0.265
CAATGTTC	-0.213
GGATTGTA	-0.18
ACGGCGCC	-0.258
CAACCCTG	0.419
ACCTACGT	0.0527
GGGACTTA	-0.131
CTACGAAG	-0.0279
ATCGCACA	-0.154
GCGCATGA	-0.185
CATGCACA	0.0313
ATTTGGAG	-0.121
ACCCTATC	0.276
TCTGAGCA	0.0698
GAGACGTA	-0.0756
CGTACTCC	-0.151
CCTATTTC	0.093
ACATTAAA	0.0208
CCTGTATA	0.0101
AGTCATAT	-0.0414

Sequence	PBM E-score
ACCGATCG	0.00036
AAGCTTAG	0.0125
CGACAGGA	0.0413
TACCTCCA	0.303
AGTGCTAA	-0.148
ACACTACC	0.254
GTCAGCCA	-0.168
AGGGATTG	-0.154
GCGCGGTA	0.114
ACCGAAAA	0.267
ATATAGGC	-0.0262
CAACAAGC	-0.036
AACCTTAA	0.352
GGGTGCTA	0.176
GGGGCTAA	-0.131
TGATTTAA	0.101
GCAATTGC	0.0259
AAAGTCTC	-0.202
ACAGCGAG	-0.153
CCACGTGA	0.031
CGTTAGAA	-0.0128
ACTTCCTA	0.0764
ACACTAAA	0.211
AGCGCGTC	-0.199
GCAGCACC	-0.0828

Sequence	PBM E-score
CCATGTCC	-0.0808
CTGGGTCC	-0.0119
AATGTCGT	-0.0154
CGAACGTA	0.0414
GGCCGCAA	-0.0567
ACGGACCC	0.0387
AGAGACAC	-0.242
ACGTAAAT	-0.0357
AGAAAACT	0.123
GCGAACCC	0.00303
AGCCCGGA	-0.0971
CATATTGA	-0.0609
CAAACGCA	-0.174
CATTGGAG	-0.0511
CATCTAAC	-0.119
CGGTGCTA	-0.00968
AATGACTC	-0.18
CAATGGCC	-0.177
CAGTGGGC	-0.131
GACATCAC	-0.0987
CCCCTGCA	-0.104
GTAACTAA	0.241
CGGGTGCA	0.0579
CTAGGCAA	-0.104
ATACATTC	-0.0563

Sequence	PBM E-score
ACAAGAGA	-0.043
GACTTGCC	-0.269
AATGACAG	-0.0283
CTCTGTCC	-0.0177
CATCACGA	-0.0653
ACATGAGT	-0.154
GATTTTAC	0.00547
ACTTGAGC	-0.0825
AATTCCTC	-0.0854
CCTATATC	0.0413
GTCGTGGA	-0.0109
ACCAGGAG	0.119
AAGTAGAA	0.00198
ACAAGACC	0.064
CTCGAAGC	-0.204
CGAAATAG	0.079
AGAGGTAC	0.298
CTCATAAG	0.0146
TCTGCGCA	-0.203
GGAACGAC	-0.247
GACGAAGC	-0.194
CGTCCGAC	-0.258
CATCCCCC	-0.226
ATATAGTA	0.121
GCCGCGAA	-0.0427

Sequence	PBM E-score
CTAATAGA	0.108
CGACCAGA	0.147
GATCTTGC	-0.156
ATCAGTTG	0.103
CTTCCATC	-0.189
TCGGCAAA	-0.0536
GAGCGATC	-0.113
ATCGCACG	-0.191
GACATAGC	-0.174
AAGCGCGA	0.0311
ATCGGGGC	-0.185
ACCAAGGA	0.0897
AATAGACT	-0.0494
ACTCTCCC	-0.291
CAGTACTA	0.164
CCGTGTAC	0.0294
AGACGGGG	-0.267
TAATTATA	0.244
CTGAATAA	0.062
GGCGAAGA	-0.185
CGCACTAC	-0.149
CCAGCTTC	-0.0539
CCCCTACG	-0.117
CACGGTAG	0.121
ACCACTTG	0.0803

Sequence	PBM E-score
CAAGGATA	0.111
GTCGTTAA	-0.0519
CACTAGTG	0.0966
CATTATGA	0.00683
CCCAAAAC	0.304
AGCCCCTC	0.0435
GACGGATA	0.067
ATCGCTTA	-0.0917
CGGGGGAG	-0.341
TGCACTAA	0.096
AGCACATC	-0.152
AGATTCGG	0.0257
GAGTATGA	-0.112
ACTATTGA	0.138
TCCGATAA	-0.064
AGTGGATA	-0.0371
CTGGCTAC	-0.0602
CGGGCTGC	-0.0991
GATTTATA	0.134
AACCCTGC	0.385
ATGTGTCA	-0.118
ACAATCCT	0.0854
CACATATG	-0.121
CGTAGCTA	-0.145
AATAATCC	0.213

Sequence	PBM E-score
ACCCGCCC	0.238
AACTCTGG	0.0995
GTACCTAA	0.211
ATTGCTGG	-0.0125
CTATGGAC	-0.0486
TATCCACA	0.0984
ACGTCTTG	-0.119
AGTTTCCA	0.123
AACATACA	0.129
ACCGTGCG	0.165
CGGCTTAA	0.247
GTTCCTCA	0.128
AGCAATAG	-0.198
GTAGGCAA	-0.176
AGAGGCTA	-0.106
ACGTCGTG	-0.127
CCCCACAG	0.00441
GATCTACC	0.11
CTTAGAAG	-0.0562
